# Laboratory results taken from PubChem BioAssay (Tox21).
# Several values for one entry are separate records, joined by “and”; a condition that tells them apart may be missing. Equal values may be shown once. Inconclusive means that the source gave no clear call. Such entries were picked first, then a sample of the others. For some of these results: A potency beside an inconclusive call is a rough fit, not a confirmed value. More than one record can exist for a structure, and the calls need not agree. Activity calls are given as the source filed them. Unless noted, calls come from the whole dose curve.
# How the values were obtained:
# [1] = qHTS assay to identify small molecule agonists of the endoplasmic reticulum stress response signaling pathway (AID 1159516; active = well fitted activation curve with a large enough effect in the signal ratio in the repeat runs, not every such curve was filed as active; inconclusive = weak or mixed curves, or effect the other way; the % refers to the signal ratio; note: potency is the fitted concentration of half-maximal effect); conditions: ESRE-bla HeLa, ER stress beta-lactamase reporter, 5 h; activation: at 61 µM (top of the series) unless noted
# Procedure, shortened: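 Beta-lactamase expression from the ER stress response element in HeLa reporter cells is quantified with the LiveBLAzer B/G FRET substrate, read at 405 nm excitation after 2 hr at room temperature, following 5 hr compound treatment at 37 C.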
# [2] = qHTS assay to identify small molecule agonists of the endoplasmic reticulum stress response signaling pathway - cell viability counter screen (AID 1159517); note: nearly all actives have a fitted effect of over 50% in size; note: potency is the fitted concentration of half-maximal effect; for activity change, negative = cytotoxicity: % is set by controls: 0 for no effect and ±100 for the full control effect
# Procedure, shortened: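 Cytotoxicity of test compounds toward ESRE-bla HeLa cells was assessed after 5 hr exposure. The luminescent CellTiter-Glo signal was measured 30 min after reagent addition.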
# [3] = qHTS assay to identify small molecule antagonists of the retinoid-related orphan receptor gamma (ROR-gamma) signaling pathway - cell viability counter screen (AID 1159520; active = well fitted curve in the direction sought with a large enough effect in the repeat runs; inconclusive = weak or mixed curves; inactive = no such curve, though single readings can be large; an effect the other way counts as inactive or inconclusive; note: nearly all actives have a fitted effect of over 50% in size; note: potency is the fitted concentration of half-maximal effect)
# Procedure, shortened: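 Tet-on ROR gamma CHO cells (1,000/well) were plated 4 hr, given compounds in DMSO for 2 hr at 37 C, then induced with 1 uM final doxycycline for 16 hr. Viability was read as ATP by CellTiter-Glo luminescence after 30 min.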
# [4] = biological target: Nuclear receptor ROR-gamma (Homo sapiens) (UniProt P51449); experiment: qHTS assay to identify small molecule antagonists of the retinoid-related orphan receptor gamma (ROR-gamma) signaling pathway (AID 1159521; active = well fitted curve in the direction sought with a large enough effect in the repeat runs; inconclusive = weak or mixed curves; inactive = no such curve, though single readings can be large; an effect the other way counts as inactive or inconclusive; note: potency is the fitted concentration of half-maximal effect; nearly all actives have a fitted effect of over 50% in size)
# Procedure, shortened: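 RORγ antagonism is scored from reduced reporter luminescence in Tet-on CHO cells. Induction used 1 uM final doxycycline hyclate for 16 h at 37 C, following a 2 h compound exposure.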
# [5] = qHTS assay to identify small molecule agonists of the NFkB signaling pathway - cell viability counter screen (AID 1159515); note: % is set by controls: 0 for no effect and ±100 for the full control effect; nearly all actives have a fitted effect of over 55% in size
# Procedure, shortened: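 Plate 2,000 NFkB-bla ME-180 cells/well; incubate overnight. Add compounds, 5 hr at 37 C. Add FRET substrate, 1.5 hr RT. Add CellTiter-Glo, 30 min RT; read luminescence.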
# [6] = qHTS assay to identify small molecule agonists of the AP-1 signaling pathway (AID 1159526); conditions: ME-180 (cervical carcinoma) AP-1-bla reporter, beta-lactamase FRET ratio, 5 h; activation: at 76.8 µM (top of the series) unless noted; note: potency is the fitted concentration of half-maximal effect; for activation: % is set by controls: 0 for no effect and ±100 for the full control effect
# [7] = qHTS assay to identify small molecule agonists of the AP-1 signaling pathway - cell viability counter screen (AID 1159525); note: nearly all actives have a fitted effect of over 55% in size; note: potency is the fitted concentration of half-maximal effect
# Procedure, shortened: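 Each titration point was normalised to DMSO and tetra n-octyl ammonium bromide controls. The read was Cell Titer Glo luminescence after 30 min at RT, following 5 h compound exposure of ME-180 AP-1-bla cells at 37 °C.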
# [8] = qHTS assay to identify small molecule agonists of the vitamin D receptor (VDR) signaling pathway - cell viability counter screen (AID 743224; active = well fitted curve in the direction sought with a large enough effect in the repeat runs; inconclusive = weak or mixed curves; inactive = no such curve, though single readings can be large; an effect the other way counts as inactive or inconclusive; note: nearly all actives have a fitted effect of over 50% in size; note: potency is the fitted concentration of half-maximal effect; for activity change, negative = cytotoxicity: % is set by controls: 0 for no effect and ±100 for the full control effect); conditions: VDR-bla HEK293T viability, CellTiter-Glo luminescence, 16 h; activity change, negative = cytotoxicity: at 62.6 µM (top of the series)
# Procedure, shortened: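 In parallel with the bla FRET readout, cytotoxicity toward VDR-bla cells after 16 h compound exposure was assessed by CellTiter-Glo, with luminescence recorded after a 30 min room-temperature incubation.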
# [9] = qHTS assay to identify small molecule antagonists of the vitamin D receptor (VDR) signaling pathway - cell viability counter screen (AID 743225; active = well fitted curve in the direction sought with a large enough effect in the repeat runs; inconclusive = weak or mixed curves; inactive = no such curve, though single readings can be large; an effect the other way counts as inactive or inconclusive; note: nearly all actives have a fitted effect of over 50% in size; note: potency is the fitted concentration of half-maximal effect; for viability change, negative = cytotoxic: % is set by controls: 0 for no effect and ±100 for the full control effect); conditions: VDR-bla HEK293T viability, CellTiter-Glo luminescence, 16 h; viability change, negative = cytotoxic: at 61 µM (top of the series) unless noted
# Procedure, shortened: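 Cells (VDR-UAS-bla HEK 293T) are plated, rested 4 h at 37C, dosed with compound and 3 nM final 1-alpha,25-dihydroxy vitamin D3, and incubated 16 h. Viability is taken from CellTiter-Glo luminescence in the reporter wells.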
# Tags give direction and shape of the fitted curve or compound fluorescence and quenching.
smiles,measurement,setting,value
Nc1ncn([C@@H]2O[C@H](CO)[C@@H](O)[C@H]2O)c(=O)n1,Potency,[1],"inconclusive: 27.5 µM [rising, partial curve] and inconclusive: 15.1 µM [rising, partial curve]"
same,Potency,[2],"inconclusive: 5.49 µM [cytotoxic, partial curve]"
same,Potency,[3],active: 3.44 µM and active: 4.22 µM
same,Potency,[4],active: 1.72 µM and active: 3.35 µM
CC1(C)S[C@@H]2[C@H](NC(=O)COc3ccccc3)C(=O)N2[C@H]1C(=O)O,Potency,[5],inactive
same,Potency,[6],inactive
NC(CO)(CO)CO,Potency,[5],inactive
same,Potency,[7],"inconclusive: 0.0006 µM [cytotoxic, partial curve, poor fit]"
CC(C)=CCC/C(C)=C/CO,Potency,[8],inactive
same,Potency,[9],inactive
same,Potency,[1],"inconclusive: 99.1 nM [fluorescent, full curve, poor fit]"
same,Potency,[2],"inconclusive: 15.7 nM [cytotoxic, full curve, poor fit] and inconclusive: 213 nM [cytotoxic, full curve, poor fit]"
C=CCCC(=O)/C=C/C1C(C)=CCCC1(C)C (centres undefined),Potency,[2],"inconclusive: 0.0098 µM [cytotoxic, full curve, poor fit]"
c1ccc(Nc2ccccc2)cc1,Potency,[8],"inconclusive: 30.9 µM [cytotoxic, partial curve, poor fit]"
same,Potency,[9],"inconclusive: 12.3 µM [cytotoxic, single point]"
same,Potency,[3],active: 54.4 µM and inactive
same,Potency,[7],"inconclusive: 49 µM [cytotoxic, partial curve, poor fit]"
same,Potency,[6],inconclusive: 21.9 µM and inconclusive: 54.9 µM
CCCOC(=O)c1cc(O)c(O)c(O)c1,Potency,[9],"inactive and inconclusive: 17.4 nM [cytotoxic, full curve]"
same,Potency,[1],inconclusive: 347 nM [activator]
C[C@H](CS)C(=O)N1CCC[C@H]1C(=O)O,Potency,[2],"inconclusive: 0.848 µM [cytotoxic, single point]"
C=C(C)C1CC=C(C)CC1 (centres undefined),Potency,[6],inactive
CN(C)C(=N)N=C(N)N,Potency,[9],inactive
O=C(CCCN1CCC(O)(c2ccc(Cl)cc2)CC1)c1ccc(F)cc1,Potency,[8],"inconclusive: 24.5 µM [cytotoxic, partial curve]"
same,Potency,[9],"inconclusive: 27.5 µM [cytotoxic, partial curve]"
same,Potency,[3],active: 54.5 µM
same,Potency,[6],"inconclusive: 17.4 µM [activator, partial curve, poor fit]"
C=C(C)C(=O)OC(C)C,Potency,[8],"inconclusive: 55.1 µM [cytotoxic, partial curve, poor fit]"
same,Potency,[6],"inconclusive: 61.8 µM [activator, single point]"
CCC(C)c1ccccc1O (centres undefined),Potency,[8],inactive
same,Potency,[6],"inconclusive: 61.2 µM [falling, partial curve, poor fit]"
O=C(c1ccc(O)c(O)c1)c1ccc(O)cc1O,Potency,[1],"inconclusive: 48900 nM [falling, partial curve, poor fit]"
same,Potency,[6],inactive
Cc1ccccc1Cl,Potency,[6],inactive
Cc1cn([C@H]2C[C@H](F)[C@@H](CO)O2)c(=O)[nH]c1=O,Potency,[2],"inconclusive: 0.535 µM [cytotoxic, single point]"
same,Potency,[7],inactive
CCCCCCCCCCC[C@@H](C[C@@H]1OC(=O)[C@H]1CCCCCC)OC(=O)[C@H](CC(C)C)NC=O,Potency,[8],"inconclusive: 6.68 µM [cytotoxic, single point]"
same,Potency,[9],"inconclusive: 0.535 µM [cytotoxic, full curve]"
same,Potency,[1],"inconclusive: 3380 nM [falling, full curve]"
same,Potency,[6],inactive
COc1cccc2c1C(=O)c1c(O)c3c(c(O)c1C2=O)C[C@@](O)(C(=O)CO)C[C@@H]3O[C@H]1C[C@H](N)[C@H](O)[C@H](C)O1,Potency,[9],"inconclusive: 0.87 µM [cytotoxic, full curve, poor fit]"
same,Potency,[3],active: 26.6 µM
same,Potency,[4],"inconclusive: 1.22 µM [inhibitor, full curve]"
same,Potency,[7],"inconclusive: 26.8 µM [rising, single point]"
same,Potency,[6],"inconclusive: 7.75 µM [inhibitor, partial curve, poor fit]"
COc1cccc([C@H](O)C2CCN(CCc3ccc(F)cc3)CC2)c1OC,Potency,[2],inactive
same,Potency,[6],inactive
CC(=O)C1(C)CC2=C(CCCC2(C)C)CC1C (centres undefined),Potency,[9],inactive
same,Potency,[1],"inconclusive: 58700 nM [cytotoxic, single point]"
same,Potency,[2],"inconclusive: 11.7 µM [cytotoxic, full curve, poor fit]"
same,Potency,[6],inactive
CC(C)CCCC(C)CCO (centres undefined),Potency,[2],inactive
[Cl][Pt-2]([Cl])([Cl])[Cl],Potency,[8],"inconclusive: 22 µM [cytotoxic, single point]"
same,Potency,[9],"inconclusive: 24.6 µM [cytotoxic, single point]"
same,Potency,[3],"inconclusive: 68.9 µM [cytotoxic, partial curve, poor fit]"
same,Potency,[6],"inconclusive: 34.8 µM [falling, partial curve, poor fit]"
Cc1ccc(N)cc1S(=O)(=O)O,Potency,[9],inactive
Nc1cccc2c(=O)[nH][nH]c(=O)c12,Potency,[9],"inconclusive: 27.7 µM [rising, partial curve, poor fit]"
same,Potency,[1],inactive
Oc1ccccc1O,Potency,[8],"inconclusive: 55.6 µM [cytotoxic, single point]"
same,Potency,[1],"inconclusive: 4.42 µM [fluorescent, full curve] and inconclusive: 9.77 µM [fluorescent, full curve]"
same,Potency,[2],"inconclusive: 7 µM [cytotoxic, full curve]"
same,Potency,[6],"inconclusive: 31.3 µM [falling, partial curve, poor fit]"
C=C(C)C(=O)OCC(C)O (centres undefined),Potency,[8],"inconclusive: 4.42 µM [rising, partial curve, poor fit]"
same,activation,[1],inconclusive: -2.39% [at 78.8 µM]
same,Potency,[2],"inconclusive: 54.8 µM [cytotoxic, partial curve, poor fit]"
CC[C@@]1(O)C(=O)OCc2c1cc1n(c2=O)Cc2cc3c(CN(C)C)c(O)ccc3nc2-1,Potency,[8],"inconclusive: 3.35 µM [cytotoxic, partial curve, poor fit]"
same,Potency,[9],"inconclusive: 6.01 µM [cytotoxic, partial curve, poor fit]"
same,Potency,[2],"inconclusive: 4.25 µM [cytotoxic, full curve]"
same,Potency,[3],active: 2.11 µM
same,Potency,[4],"inconclusive: 0.0841 µM [inhibitor, full curve, poor fit]"
same,Potency,[6],"inconclusive: 19 µM [rising, partial curve]"
CCc1ccccc1O,Potency,[1],"inconclusive: 24.4 nM [rising, full curve, poor fit]"
same,Potency,[6],inconclusive: 17.3 µM
O=c1c(O)c(-c2ccc(O)c(O)c2)oc2cc(O)cc(O)c12,Potency,[4],active: 43.6 µM and active: 54.5 µM
same,Potency,[6],"inconclusive: 61.6 µM [falling, partial curve, poor fit]"
CN(C)c1ccc2nc3ccc(=[N+](C)C)cc-3sc2c1,Potency,[1],"inconclusive: 436 nM [rising, full curve, poor fit]"
same,Potency,[2],inconclusive: 54.9 µM [cytotoxic]
same,Potency,[3],"inconclusive: 23.7 µM [cytotoxic, partial curve]"
same,Potency,[7],active: 16.7 µM and active: 43.6 µM and inconclusive: 21.3 µM [cytotoxic]
same,Potency,[6],"inconclusive: 2.97 µM [activator, partial curve] and inconclusive: 6.92 µM [activator] and inconclusive: 9.52 µM [activator]"
O=C1OC2(c3ccccc31)c1cc(I)c(O)c(I)c1Oc1c2cc(I)c(O)c1I,Potency,[3],"inconclusive: 27.4 µM [cytotoxic, partial curve] and inconclusive: 8.73 µM [cytotoxic, partial curve] and inconclusive: 11.9 µM [cytotoxic, partial curve]"
same,Potency,[4],"inconclusive: 6.94 µM [inhibitor, full curve] and inconclusive: 18.6 µM [inhibitor, partial curve, poor fit]"
same,Potency,[6],inconclusive: 6.24 µM and active: 29.8 µM
COc1cccc2c1C(=O)c1c(O)c3c(c(O)c1C2=O)C[C@@](O)(C(C)=O)C[C@@H]3O[C@H]1C[C@H](N)[C@H](O)[C@H](C)O1,Potency,[8],"active: 34.9 µM and inconclusive: 237 nM [cytotoxic, full curve, poor fit]"
same,Potency,[9],inconclusive: 62 µM [cytotoxic]
same,Potency,[1],"inconclusive: 1.1 µM [rising, full curve] and inconclusive: 1.9 µM [rising, full curve]"
same,Potency,[2],"inconclusive: 781 nM [cytotoxic, full curve] and active: 952 nM"
same,Potency,[4],active: 30.8 µM
O=C1Nc2ccccc2C1(c1ccc(O)cc1)c1ccc(O)cc1,Potency,[7],"inconclusive: 275 nM [cytotoxic, full curve] and inconclusive: 84.9 nM [cytotoxic, full curve]"
same,Potency,[6],"inconclusive: 275 nM [falling, full curve] and inconclusive: 84.9 nM [falling, full curve]"
Cc1cc(SC2=C(O)C[C@@](CCc3ccc(N)cc3)(C(C)C)OC2=O)c(C(C)(C)C)cc1CO,Potency,[6],inactive
O=C(c1ccccc1)C1CCCCC1,Potency,[3],inactive
C=C(C)C(=O)OCCCCCCCCCCOC(=O)C(=C)C,Potency,[7],inactive
